Reference: the BET-seq Pho4 binding data (Le et al. 2018)
The other results are listed elsewhere or left out. Values were computed here from the reads of four pooled replicates and scatter widely.

Target: T1, Pho4 (S. cerevisiae) (UniProt P07270)
T1 sequence: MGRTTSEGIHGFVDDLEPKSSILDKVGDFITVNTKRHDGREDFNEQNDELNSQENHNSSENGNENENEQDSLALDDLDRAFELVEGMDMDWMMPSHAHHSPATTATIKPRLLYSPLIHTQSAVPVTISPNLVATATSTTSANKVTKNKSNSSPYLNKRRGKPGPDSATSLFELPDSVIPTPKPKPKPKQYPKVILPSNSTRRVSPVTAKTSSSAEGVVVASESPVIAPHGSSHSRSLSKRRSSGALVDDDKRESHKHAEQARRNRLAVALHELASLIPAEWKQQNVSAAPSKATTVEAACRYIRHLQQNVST
Assay: relative binding free energy (BET-seq); higher = weaker binding
Settings: reference: library average

Sequence	relative binding free energy
TTAGTCACGTGATTAA	0.1 kcal/mol
AAGTACACGTGGTGCG	-0.13 kcal/mol
AAAGGCACGTGAAGGT	0.12 kcal/mol
TTGGGCACGTGGCTGC	-0.18 kcal/mol
TTAGACACGTGGTCAT	-0.1 kcal/mol
TGTGACACGTGTGCAG	0.04 kcal/mol
CGGGTCACGTGTACGG	0.16 kcal/mol
AGGGACACGTGGTAGC	-0.02 kcal/mol
TGGCTCACGTGAAATG	0.35 kcal/mol
GTGGCCACGTGGGGGG	-0.08 kcal/mol
TGCGTCACGTGATTTG	0.24 kcal/mol
GGAAGCACGTGAGGAC	0.27 kcal/mol
ATTGTCACGTGGACGG	0.1 kcal/mol
TCGTACACGTGTTTGG	0.07 kcal/mol
TAAGGCACGTGTATGA	-0.17 kcal/mol
GTGAGCACGTGTAGGT	-0.05 kcal/mol
ATTTGCACGTGGCGTG	0 kcal/mol
AGATTCACGTGGTCAT	0.13 kcal/mol
GAAGTCACGTGTTAGG	0.26 kcal/mol
TTATTCACGTGGATGT	0.32 kcal/mol
GTGTTCACGTGTGTTG	0.33 kcal/mol
TATTACACGTGATTAT	0.13 kcal/mol
CGTGGCACGTGTGGCT	-0.02 kcal/mol

Sequence	relative binding free energy
TTGGGCACGTGCGTCG	-0.16 kcal/mol
ATAATCACGTGCGGGG	0.1 kcal/mol
TTGTGCACGTGTACGA	0.1 kcal/mol
TTAGGCACGTGGTATC	-0.2 kcal/mol
AGGAGCACGTGTCAGG	-0.07 kcal/mol
TTCGGCACGTGGGGAG	-0.25 kcal/mol
GAATTCACGTGAGGGG	0.43 kcal/mol
GAAATCACGTGTTGGG	0.21 kcal/mol
TGTGGCACGTGCAATG	-0.21 kcal/mol
TACGTCACGTGCTGGT	-0.08 kcal/mol
TTTTACACGTGTTAGA	0.04 kcal/mol
GGGGTCACGTGGGTAT	0.09 kcal/mol
GTAGTCACGTGAATTT	0.29 kcal/mol
GCTGACACGTGGGGGT	-0.02 kcal/mol
GTATTCACGTGATTGA	0.31 kcal/mol
ACGGTCACGTGGCGTG	-0.09 kcal/mol
GTGTGCACGTGTTTGT	-0.02 kcal/mol
TTTGCCACGTGCCGGT	-0.01 kcal/mol
ATTGACACGTGGAGTG	0.05 kcal/mol
TTCTTCACGTGGTGTC	0.37 kcal/mol
AGGTTCACGTGGACGG	0.19 kcal/mol
GGGGGCACGTGGCATT	-0.2 kcal/mol
GTGTTCACGTGCGGTA	0.19 kcal/mol

Sequence	relative binding free energy
GGGGTCACGTGAGTTC	0.46 kcal/mol
TGGCACACGTGAGGAT	0.37 kcal/mol
TTTTTCACGTGGTCAG	0.24 kcal/mol
AGTAGCACGTGGTTAA	-0.24 kcal/mol
GGTGGCACGTGAGCCG	0.12 kcal/mol
CGCTCCACGTGTTGGG	0.28 kcal/mol
GAAGGCACGTGCGGAG	-0.19 kcal/mol
GGTGTCACGTGACTGA	0.2 kcal/mol
CTGGTCACGTGGGACG	-0.06 kcal/mol
AGATTCACGTGAGTAT	0.28 kcal/mol
TGTTTCACGTGTGACT	0.23 kcal/mol
GTTTTCACGTGGATTA	0.36 kcal/mol
GGATACACGTGTGGGC	0.14 kcal/mol
GTAGTCACGTGGCAAG	0.05 kcal/mol
AGTCACACGTGGGGAA	0.13 kcal/mol
GGTTTCACGTGCATGT	0.3 kcal/mol
GATTGCACGTGTTGAG	0.1 kcal/mol
ATATTCACGTGTTCGA	0.14 kcal/mol
TGACGCACGTGTGTGG	-0.2 kcal/mol
ATAAGCACGTGAATGG	0.18 kcal/mol
AGGCGCACGTGGGTGT	-0.24 kcal/mol
TTTTTCACGTGTGCGA	0.31 kcal/mol
TGAGGCACGTGTATGA	-0.14 kcal/mol

Sequence	relative binding free energy
TCTTGCACGTGGTATG	-0.18 kcal/mol
GGGCTCACGTGGTCCG	0.38 kcal/mol
ATGGTCACGTGTGACT	0.25 kcal/mol
CGGTGCACGTGTGGCG	-0.17 kcal/mol
GGTTCCACGTGGTTAA	0.15 kcal/mol
GTAATCACGTGATGAG	0.19 kcal/mol
AGCGTCACGTGTTGGC	0.12 kcal/mol
CTTGTCACGTGGTCTT	0.13 kcal/mol
GGCGTCACGTGTGCTT	0.17 kcal/mol
CAATGCACGTGGCTTG	0.01 kcal/mol
TGGCACACGTGGATTT	0.13 kcal/mol
TCGTTCACGTGGTTTG	0.23 kcal/mol
GATTGCACGTGCTTTT	0.09 kcal/mol
ATGCGCACGTGGGGTA	-0.27 kcal/mol
TACGTCACGTGATATT	0.22 kcal/mol
CAGTGCACGTGGGCGG	-0.3 kcal/mol
CGCATCACGTGGTGGT	0.1 kcal/mol
AGTTTCACGTGTTATC	0.25 kcal/mol
TGAAACACGTGGTTTG	-0.14 kcal/mol
AGGATCACGTGTTGTA	0.1 kcal/mol
GGAGGCACGTGATGGG	0.03 kcal/mol
ATTTGCACGTGTTGGT	0.08 kcal/mol
ACAGGCACGTGGGCGG	-0.25 kcal/mol

Sequence	relative binding free energy
ATTGACACGTGTGCGG	-0.04 kcal/mol
AAGGACACGTGACGGG	0.1 kcal/mol
ATGTTCACGTGTCTAG	0.18 kcal/mol
TATTTCACGTGTGTTA	0.27 kcal/mol
TCGGTCACGTGTGGTG	0.09 kcal/mol
AGGGTCACGTGAGGCT	0.28 kcal/mol
AGTTACACGTGTTGGT	0.12 kcal/mol
TATTGCACGTGATACG	0.07 kcal/mol
AGTCGCACGTGTTATT	-0.04 kcal/mol
TAGAGCACGTGGTGTC	-0.16 kcal/mol
AAGGGCACGTGGTCGT	-0.37 kcal/mol
TGTAACACGTGAATGT	0.28 kcal/mol
ATGGTCACGTGCCAGG	0.06 kcal/mol
TAGTGCACGTGTCGGC	0 kcal/mol
GGGCACACGTGGTTCG	0.05 kcal/mol
CATGTCACGTGTCGGT	0.11 kcal/mol
TTGTACACGTGAGGTC	0.21 kcal/mol
GTGTTCACGTGCGGTT	0.29 kcal/mol
TCATGCACGTGGGGTG	-0.16 kcal/mol
ATGGTCACGTGAGATT	0.31 kcal/mol
GTGATCACGTGAGGGT	0.33 kcal/mol
TATGCCACGTGCTGGG	-0.08 kcal/mol
GTGGCCACGTGTCGTG	-0.14 kcal/mol
